Experimental data: PMC4336329 (PLoS ONE, 2015)
In all, about 310,000 compounds went through this assay and about 2,200 (0.71%) showed an effect of 50% or more. Effects have a minus sign here. The list shows a part of the results.

Each molecule was assayed against human ether-à-go-go-related gene (hERG) potassium channel (human, UniProt Q12809) (assay: primary screen, population patch clamp on CHO cells stably expressing hERG).
human ether-à-go-go-related gene (hERG) potassium channel, sequence (Q12809 whole entry, looked up): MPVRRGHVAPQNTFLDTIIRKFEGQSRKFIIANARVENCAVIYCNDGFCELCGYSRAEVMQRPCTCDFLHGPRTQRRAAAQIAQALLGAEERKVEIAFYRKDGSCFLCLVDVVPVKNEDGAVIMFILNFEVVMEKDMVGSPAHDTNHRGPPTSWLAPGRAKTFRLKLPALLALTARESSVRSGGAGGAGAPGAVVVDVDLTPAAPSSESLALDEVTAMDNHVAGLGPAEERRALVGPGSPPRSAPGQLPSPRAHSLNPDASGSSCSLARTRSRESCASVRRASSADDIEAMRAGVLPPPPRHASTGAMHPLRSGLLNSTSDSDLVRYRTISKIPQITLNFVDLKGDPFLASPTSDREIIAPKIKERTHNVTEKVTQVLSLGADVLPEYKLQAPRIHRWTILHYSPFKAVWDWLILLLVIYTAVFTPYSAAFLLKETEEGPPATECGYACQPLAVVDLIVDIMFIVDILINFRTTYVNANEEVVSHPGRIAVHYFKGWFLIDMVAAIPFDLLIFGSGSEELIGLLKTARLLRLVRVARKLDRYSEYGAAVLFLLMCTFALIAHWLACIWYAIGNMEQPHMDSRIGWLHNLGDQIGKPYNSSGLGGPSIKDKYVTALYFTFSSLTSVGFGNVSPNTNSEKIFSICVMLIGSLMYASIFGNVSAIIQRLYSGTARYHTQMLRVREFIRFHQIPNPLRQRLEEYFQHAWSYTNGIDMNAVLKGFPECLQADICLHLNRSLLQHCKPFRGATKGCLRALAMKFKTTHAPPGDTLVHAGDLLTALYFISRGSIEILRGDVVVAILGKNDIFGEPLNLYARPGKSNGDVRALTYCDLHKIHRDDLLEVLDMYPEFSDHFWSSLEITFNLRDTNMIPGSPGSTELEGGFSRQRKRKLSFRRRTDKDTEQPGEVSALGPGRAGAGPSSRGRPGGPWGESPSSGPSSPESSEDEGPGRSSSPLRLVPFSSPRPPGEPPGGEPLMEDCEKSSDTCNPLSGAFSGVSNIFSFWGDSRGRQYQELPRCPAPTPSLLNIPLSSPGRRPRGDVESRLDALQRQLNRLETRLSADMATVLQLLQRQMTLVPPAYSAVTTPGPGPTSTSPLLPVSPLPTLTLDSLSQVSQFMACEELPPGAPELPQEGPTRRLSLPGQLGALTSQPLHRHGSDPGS

| SMILES | hERG current change (%, negative = inhibition) at 1uM |
| --- | --- |
| COc1ccc(CNC(=O)COC(=O)c2ccc(F)c(S(=O)(=O)N3CCCCC3)c2)cc1OC | 11.7% |
| COc1cccc(NC(=S)N(CCCN2CCCC2)Cc2cccn2Cc2ccc(Cl)cc2)c1 | -4.22% |
| C/C(=N/NC(=O)c1ccncc1)c1ccc2c(c1)OCO2 | 13.7% |
| CCc1noc(C)c1C(=O)N(C)CC(=O)Nc1ccccc1C(F)(F)F | 7.89% |
| COc1ccc(OC)c(Nc2cc(C)nc3ccccc23)c1 | -3.29% |
| CCC(CC)c1nnc(NC(=O)C2CCCO2)s1 (centres unmarked) | 2.37% |
| CCN(CC)c1ccc(/C=C/c2cccc[n+]2C)c(OC)c1.[I-] | -1.37% |
| Cc1cc(NC(=O)c2cccs2)ncc1NC(=O)C(C)(C)C | 12.4% |
| CCc1ccccc1NC(=O)CN(C)C(=O)Cn1ncc(Cl)c(Cl)c1=O | 6.43% |
| c1ccc(Nc2nc(N3CCCC3)nc(N3CCOCC3)n2)cc1 | 4.8% |
| O=C(c1ccc2c(c1)OCCO2)N1CCN(c2ncc(C(F)(F)F)cc2Cl)CC1 | 6.27% |
| COc1ccc(C(=O)N2CCN(c3ccc(C)c(C)c3)CC2)cc1OC | 7.29% |
| CC1CCN(Cc2c(C(=O)O)nnn2-c2nonc2N)CC1 | -4.2% |
| CN(C(=O)c1cc([N+](=O)[O-])ccc1NCc1cccnc1)c1ccccc1 | 5.16% |
| CC(C)CCn1c(SCC(=O)N2CC(=O)Nc3ccccc32)nc2scc(-c3cccs3)c2c1=O | 12.7% |
| C#CCOCCOCCOCCNc1nc(N2CCN(C(=O)[C@H]([C@@H](C)CC)n3cc([C@@H](N)CO)nn3)CC2)nc(N2CCN(C(=O)[C@H](CCCCN)n3cc([C@@H](N)C(C)CC)nn3)CC2)n1.Cl (some centres unmarked) | 2.56% |
| CCCCC(=O)Nc1nnc(SCC(=O)Nc2ccc(OC)cc2)s1 | 13.9% |
| BrC(/C=C\c1ccccc1)=N/Nc1nc(N2CCOCC2)nc(N2CCOCC2)n1 | 4.01% |
| CCN(CC)C(=O)c1ccc(C(=O)c2ccccc2)cc1 | 6.39% |
| CN(C)/C=N/c1nc2nccc(-c3cccs3)n2n1 | 18.1% |
| CC(=O)Nc1ccc(S(=O)(=O)NCC2CCC(C(=O)NCc3ccccc3)CC2)cc1 (centres unmarked) | 1.85% |
| Cn1c(=O)c2c(nc(OCc3ccc4c(c3)OCO4)n2Cc2ccccc2Cl)n(C)c1=O | 6.8% |

| SMILES | hERG current change (%, negative = inhibition) at 1uM |
| --- | --- |
| CCCN(Cc1cc2cc(C)ccc2[nH]c1=O)C(=O)c1cccc([N+](=O)[O-])c1 | -0.504% |
| CC(C)(C)OC(=O)NNC(=O)Nc1ccccc1C(F)(F)F | 12.3% |
| Cc1ccc(N2CCN(S(=O)(=O)c3ccc(C)cc3)CC2)cc1 | 7.12% |
| Cc1[nH]c2ccccc2c1C(=O)C(C)OC(=O)c1ccccc1NCCO (centres unmarked) | 12.8% |
| OCC[C@@H]1C[C@H](O)[C@@H](O)[C@@]2(OCc3ccccc32)O1 | 12% |
| CCOC(=O)C(Cc1ccccc1)NC(=O)Cn1nnc(-c2ccccc2)n1 (centres unmarked) | -6.34% |
| O=C(O)CSc1ncn[nH]1 | -5.94% |
| CN1Cc2c(N)cccc2C(c2ccccc2)C1.O=C(O)/C=C\C(=O)O (centres unmarked) | 2.56% |
| COc1ccc(/C=N/N(C)C2=NS(=O)(=O)c3ccccc32)cc1 | 12.3% |
| COc1cc(/C=C2\SC(=S)N(NS(=O)(=O)c3ccccc3)C2=O)cc(OC)c1OC | 13% |
| COc1cc(OC)cc(N2CC(C)(C)C2=O)c1 | 5.17% |
| CCOc1ccc(OC(=O)c2cccc(S(=O)(=O)N3CCN(C)CC3)c2)cc1 | 8.46% |
| O=C(CN1C(=O)c2cccnc2Oc2ccc(Cl)cc21)NCCCc1ccccc1 | 4.41% |
| COc1ccc(-c2ocnc2C(=O)Nc2ccc(N3CCOCC3)cc2N2CCOCC2)cc1OC | 5.8% |
| Cc1ccc(C(=O)OCC(=O)NNC(=O)c2ccc([N+](=O)[O-])cc2)o1 | 14.1% |
| COc1ccccc1N1CCN(c2cc(=O)n(-c3ccc(Br)cc3)c(=O)[nH]2)CC1 | 6.54% |
| COc1ccc(C(=O)CCC(=O)Nc2cccc(Cl)c2)cc1 | -1.27% |
| CCOc1ccc(-c2cnc3n2CCC3)cc1.Cl | -5.39% |
| CC1CCCCC1NC(=O)C1CCN(S(=O)(=O)c2cccc3nsnc23)CC1 (centres unmarked) | 13.6% |
| Cc1ccc(C(=O)OCC(=O)N2CCOCC2)c(C)c1 | 16.1% |
| Cc1ccccc1OCCC(=O)OCC(=O)N1CCN(S(=O)(=O)c2ccc(Cl)cc2)CC1 | 3.31% |
| O=C(NCCN1CCOCC1)c1ccc2c(c1)N(Cc1ccc(Cl)cc1)CCS2 | 6.21% |
